± gives the standard deviation. The full ranking holds about 3,700 sequences; the median of “pre-steady-state target cleavage rate” is about 0.02, and the highest 2% start at about 0.23. The list shows a part of the results, in another mix than the full data.
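Further: 1 nM active piRISC with 0.1 nM target library at 33 °C single turnover.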

In this assay the test system is MILI (PIWIL2) piRISC loaded with Kctd7 piRNA (26 nt). In words: pre-steady-state target cleavage rate (min^-1); MIWI and MILI are mouse PIWI proteins and EfPiwi is from a freshwater sponge; tags in brackets are library labels; higher = faster piRNA-guided slicing of the target. Particulars: guide: Kctd7 piRNA 5'p-UGUUAAUCUCUCAGAGAAGGUGACAG; auxiliary factor: 500 nM mouse GTSF1. The method, boiled down:
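A transcribed, DNA-blocked target RNA library […] was incubated at 33 °C for 0–8 or 0–960 min with 1 nM active affinity-purified piRISC carrying one synthetic guide, in HEPES–potassium acetate buffer with or without 500 nM GTSF1 partner protein. Uncleaved targets were then sequenced and normalised to depth and to weakly complementary targets. Data from three trials were pooled, with k3 capped at 0.0001 min^-1, and a burst-and-steady-state fit yielded the pre-steady-state cleavage rate.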
As for UAGUGACAGACCCUCUCUGAGAGAUUAACA, the “pre-steady-state target cleavage rate” value came to 0.0901 ± 0.019.

Turning to UAGUGACUGACCUUCUCAGAGAGAUUAACA, the “pre-steady-state target cleavage rate” value amounted to 0.0529 ± 0.0074.

Regarding UAGUCUGUCACCAUCUCUGAGAGAAUAACA, the “pre-steady-state target cleavage rate” value is 0.127 ± 0.024.

As to UAGUGACAGUGCUUCUCUGAGACUUUAACA, the “pre-steady-state target cleavage rate” value was below 0.0001.

Regarding UAGUCUCUCACCUUCUCUGACAGAUUAACA, the “pre-steady-state target cleavage rate” value was found to be 0.0512 ± 0.0076.

As for UAGUGACAGUGGAUCUCUGAGUAGAUUAACA, the “pre-steady-state target cleavage rate” value is below 0.0001.

On to UAGUGACAGUCCUUCUCUGAGAGAUUUACA, for which the “pre-steady-state target cleavage rate” value worked out at 0.0361 ± 0.0071.

Turning to UAGUGACAGUCCUUCUCUGAGACAUUAACA, the “pre-steady-state target cleavage rate” value was 0.00891 ± 0.0025.

UAGUGACACACCUUCUCUGAGAGAUUUAACA: the “pre-steady-state target cleavage rate” value was found to be 0.243 ± 0.023.

With UAGUGACACACCUACUCUGAGAGUUUAACA, the “pre-steady-state target cleavage rate” value is 0.0465 ± 0.012.

Take UAGUCUGACACCUUCUCAGAGAGAUUAACA: the “pre-steady-state target cleavage rate” value was determined as 0.0959 ± 0.01.

Consider UAGUGACAGUGGAAGACUGAGACAUUAAGA, for which the “pre-steady-state target cleavage rate” value is below 0.0001.

Turning to UAGUGACAGUGGUUCUCUAAGAGAUUAACA, the “pre-steady-state target cleavage rate” value worked out at 0.00458 ± 0.0017.

With UAGUGAGUCACCAUCUCUGAGAGUUUAACA, the “pre-steady-state target cleavage rate” value is 0.0921 ± 0.026.

Take UAGUGACACAGCUUCUCUGAGAGAUUAACA: the “pre-steady-state target cleavage rate” value was determined as 0.0705 ± 0.006.

Turning to UAGUGACAGUCCUUCUCUGAGAGAUUAACCA, the “pre-steady-state target cleavage rate” value stood at 0.0785 ± 0.0063.

On to “UAGUGACAGUGGAAGUCUGAGUCUAAUUGA [g10:g15:cont:t1A]”, for which the “pre-steady-state target cleavage rate” value is 0.0124 ± 0.011.

As for UAGUGACAGUGCUUGUCUGAGACAUUAACA, the “pre-steady-state target cleavage rate” value stood at 0.00491 ± 0.0032.

For the sequence UAGUGACUCACCUUCUCAGAGAGAUUAUCA, the “pre-steady-state target cleavage rate” value stood at 0.0401 ± 0.0099.

UAGUGUGACACCUUCUCAGAGAGAUUAACA: the “pre-steady-state target cleavage rate” value turned out to be 0.0933 ± 0.013.

For UAGUGACAGUGGUUCUCUAGAGAUUAACA, the “pre-steady-state target cleavage rate” value was below 0.0001.

As for UAGUGACAGACCUUCUCUCAGAGAUUAUCA, the “pre-steady-state target cleavage rate” value was 0.0125 ± 0.0038.

As for UAGUGACAGUGCUUGUCUGAGAGUUUAACA, the “pre-steady-state target cleavage rate” value was found to be 0.00883 ± 0.0039.

Consider UAGUGACAGUCCUUCCCUGAGAGAUUAACA, for which the “pre-steady-state target cleavage rate” value was 0.0297 ± 0.0076.

Consider UAGUGAGUCAGGUUCUCUGAGAGAUUAAGA, for which the “pre-steady-state target cleavage rate” value was 0.0194 ± 0.0076.

For UAGUCUGUCACCCUUCUCUGAGAGAUUAACA, the “pre-steady-state target cleavage rate” value amounted to 0.143 ± 0.014.

For the sequence UAGUGACUCACGUUCACUGAGAGAUUAACA, the “pre-steady-state target cleavage rate” value is 0.175 ± 0.015.

Regarding UAGUGACACAGCUUCUCAGAGAGAUUAACA, the “pre-steady-state target cleavage rate” value stood at 0.0231 ± 0.0064.

For UAGUGUGACACCUUCUCUGACAGAUUAACA, the “pre-steady-state target cleavage rate” value stood at 0.0418 ± 0.0083.

For the sequence UAGUCUGUCACCUUCUCUGAGAGAUAAACA, the “pre-steady-state target cleavage rate” value turned out to be 0.132 ± 0.022.

With UAGUGACUCACCUUCACUGAGAGAAUAACA, the “pre-steady-state target cleavage rate” value is 0.01 ± 0.0071.

On to UAGUCUGUCACCUUUCUCUGAGAGAUUAACA, for which the “pre-steady-state target cleavage rate” value worked out at 0.198 ± 0.015.

Regarding UAGUCUGUCACGCUUCUCUGAGAGAUUAACA, the “pre-steady-state target cleavage rate” value is 0.102 ± 0.0067.

Turning to UAGUGACACACGUUCUCUGAGAGUUUAACA, the “pre-steady-state target cleavage rate” value worked out at 0.0435 ± 0.0063.

As to UAGUGACAGACCUUCUGUGUGAGAUUAACA, the “pre-steady-state target cleavage rate” value stood at 0.022 ± 0.0066.

As to UAGUGACAGUGGCUCUCUGAGAGAUUAACA, the “pre-steady-state target cleavage rate” value is 0.00558 ± 0.002.

Consider UAGUGACAGACCUUCUCUGAGAGAUAUAACA, for which the “pre-steady-state target cleavage rate” value was 0.0752 ± 0.013.

In the case of UAGUGACAGUGCUUCUCUGAGAGAUUAAACA, the “pre-steady-state target cleavage rate” value is 0.0397 ± 0.0072.

With UAGUGACAGUCCUGUCUCUGAGAGAUUAACA, the “pre-steady-state target cleavage rate” value came to 0.0462 ± 0.0043.

As to UAGUGACAGUCGUUCUCUGAGAGAUUAACA, the “pre-steady-state target cleavage rate” value stood at 0.0564 ± 0.0099.

For UAGUCUGCACCUUCUCUGAGAGAUUAACA, the “pre-steady-state target cleavage rate” value is 0.182 ± 0.012.

Turning to UAGUGACACACCUUCUCUCAGUGAUUAACA, the “pre-steady-state target cleavage rate” value was found to be 0.00607 ± 0.0036.

As to UAGUGACACACCUUCAGUGAGAGAUUAUGA, the “pre-steady-state target cleavage rate” value was 0.0159 ± 0.0068.

UAGUGACUCACAUUCUCUGAGAGAUUAACA: the “pre-steady-state target cleavage rate” value amounted to 0.0809 ± 0.0069.

For UAGUGACAGUCGAUCUCUGAGAGAUUAACA, the “pre-steady-state target cleavage rate” value was found to be 0.00942 ± 0.0016.

UAGUGUGUCACCUUCUCUGAGAGCUUAACA: the “pre-steady-state target cleavage rate” value worked out at 0.173 ± 0.022.

Take UAGUGACUCACCUUCUCUCAGAGAUAAACA: the “pre-steady-state target cleavage rate” value was 0.0125 ± 0.0052.

Regarding UAGUCUGUCACCUUCUCUGAGAGGAUUAACA, the “pre-steady-state target cleavage rate” value amounted to 0.174 ± 0.019.

UAGUCUGUCACCUUCUCUGAGAGAUAUACA: the “pre-steady-state target cleavage rate” value came out at 0.0896 ± 0.023.

Consider UAGUCUGUCACCUUCACAGAGAGAUUAACA, for which the “pre-steady-state target cleavage rate” value was determined as 0.0761 ± 0.0083.

Turning to UAGUGUGUCACCUUCUGCUGAGAGAUUAACA, the “pre-steady-state target cleavage rate” value was 0.127 ± 0.029.

In the case of UAGUCUGUCACCUUCACUGAGAGUUUAACA, the “pre-steady-state target cleavage rate” value worked out at 0.141 ± 0.032.

For UAGUGUGUCACCUUCAGUGAGAGAUUUUGA, the “pre-steady-state target cleavage rate” value was determined as 0.0129 ± 0.0057.

In the case of UAGUGUGUCACCUACUCUGUGAGAUUAACA, the “pre-steady-state target cleavage rate” value stood at 0.0442 ± 0.0059.

Regarding UAGUGAGUCACCUUCUGUGAGAGAUUUUGA, the “pre-steady-state target cleavage rate” value is 0.00801 ± 0.0063.

Regarding UAGUGACAGUGCUUGUCUGAGAGAUUAACA, the “pre-steady-state target cleavage rate” value stood at 0.0469 ± 0.0093.

For the sequence UAGUGUGUCACCUUCUCUGAGAGAUUAUGA, the “pre-steady-state target cleavage rate” value is 0.0812 ± 0.019.

UAGUGAGUCACCUUCUCUGAGUCUUUAACA: the “pre-steady-state target cleavage rate” value turned out to be 0.00784 ± 0.0059.

In the case of UAGUGUUUCACCUUCUCUGAGAGAUUAACA, the “pre-steady-state target cleavage rate” value was determined as 0.176 ± 0.015.

On to UAGUGUGUGACCUUCUCUGAGAGAAUAACA, for which the “pre-steady-state target cleavage rate” value was 0.0833 ± 0.022.

For UAGUGUGACACCUUCUCUGAGAGAUAAACA, the “pre-steady-state target cleavage rate” value came out at 0.124 ± 0.039.

On to UAGUGACAGUGCUUCUCUGAGAUGAUUAACA, for which the “pre-steady-state target cleavage rate” value stood at 0.0139 ± 0.0031.

UAGUGAGUCACCUUGUCUGAGAGAUAAACA: the “pre-steady-state target cleavage rate” value is 0.0145 ± 0.0061.

With UAGUGACUCACCUUCUCUCACAGAUUAACA, the “pre-steady-state target cleavage rate” value is 0.00531 ± 0.0044.

Take UAGUGACUCACCAUCUCUGAGAGAUUAACA: the “pre-steady-state target cleavage rate” value was 0.112 ± 0.0064.

As for UAGUGACAGUCGUUCUCUGAGAGAUUAUCA, the “pre-steady-state target cleavage rate” value is 0.00789 ± 0.0033.

Take UAGUCUGUCACGUUCUCUGAGAGAUUAACA: the “pre-steady-state target cleavage rate” value amounted to 0.191 ± 0.0084.

In the case of UAGUGACAGACCUUCUGAGAGAGAUUAACA, the “pre-steady-state target cleavage rate” value amounted to 0.0179 ± 0.0066.

Consider UAGUGAGUGCACCUUCUCUGAGAGAUUAACA, for which the “pre-steady-state target cleavage rate” value was 0.163 ± 0.017.

Consider UAGUCUGUCACGUUCUCUGUGAGAUUAACA, for which the “pre-steady-state target cleavage rate” value stood at 0.034 ± 0.0027.

On to UAGUCUGUCACCUUCUCACAGAGAUUAACA, for which the “pre-steady-state target cleavage rate” value worked out at 0.034 ± 0.01.

As for UAGUGACACAUCUUCUCUGAGAGAUUAACA, the “pre-steady-state target cleavage rate” value was 0.191 ± 0.0091.
